The record followed here is publication PMC5584178.

Sequences of proteins named here, by UniProt entry; tags and fusion partners are left off. A change or cut given only in a name is not applied to a line headed by its entry.
UniProt P40235: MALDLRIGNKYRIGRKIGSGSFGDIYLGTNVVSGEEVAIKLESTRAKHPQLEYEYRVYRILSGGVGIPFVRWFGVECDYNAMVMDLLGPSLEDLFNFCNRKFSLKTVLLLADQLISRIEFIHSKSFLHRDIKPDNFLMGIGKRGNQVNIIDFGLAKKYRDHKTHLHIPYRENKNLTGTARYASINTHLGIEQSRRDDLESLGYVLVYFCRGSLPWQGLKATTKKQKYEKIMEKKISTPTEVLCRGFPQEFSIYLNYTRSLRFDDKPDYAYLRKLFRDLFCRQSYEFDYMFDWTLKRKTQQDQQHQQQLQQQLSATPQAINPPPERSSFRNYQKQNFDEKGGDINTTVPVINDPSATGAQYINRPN

Assay [1] addresses T1, GFPn.Sid4(466–660) (fission yeast) (UniProt O60187).
T1 sequence: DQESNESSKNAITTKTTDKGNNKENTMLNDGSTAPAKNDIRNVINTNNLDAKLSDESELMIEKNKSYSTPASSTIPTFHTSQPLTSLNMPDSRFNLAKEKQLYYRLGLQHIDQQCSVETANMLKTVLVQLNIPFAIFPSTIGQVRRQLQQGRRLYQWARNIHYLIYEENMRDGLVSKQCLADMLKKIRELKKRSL
The assay is described as follows: co-IP; GFP-tagged Sid4(466-660) fragments precipitated with GFP-Trap-M from S. pombe lysate in IP1 buffer (50 mM Tris-Cl pH 8, 50 mM NaCl, 0.5% triton-X100); Ppc89.3Pk detected by Western blot with antibody to the Pk epitope. Background: In western blotting, separated proteins are transferred to a membrane and probed.

Assay [2] addresses T2, GFPn.Sid4(466–660) T584V (fission yeast) (UniProt O60187).
T2 sequence: T1 sequence with T119V
The description is as above.

For assay [3], the target named is T3, Chk2^Cds1.GFP (fission yeast) (UniProt Q09170).
T3 sequence: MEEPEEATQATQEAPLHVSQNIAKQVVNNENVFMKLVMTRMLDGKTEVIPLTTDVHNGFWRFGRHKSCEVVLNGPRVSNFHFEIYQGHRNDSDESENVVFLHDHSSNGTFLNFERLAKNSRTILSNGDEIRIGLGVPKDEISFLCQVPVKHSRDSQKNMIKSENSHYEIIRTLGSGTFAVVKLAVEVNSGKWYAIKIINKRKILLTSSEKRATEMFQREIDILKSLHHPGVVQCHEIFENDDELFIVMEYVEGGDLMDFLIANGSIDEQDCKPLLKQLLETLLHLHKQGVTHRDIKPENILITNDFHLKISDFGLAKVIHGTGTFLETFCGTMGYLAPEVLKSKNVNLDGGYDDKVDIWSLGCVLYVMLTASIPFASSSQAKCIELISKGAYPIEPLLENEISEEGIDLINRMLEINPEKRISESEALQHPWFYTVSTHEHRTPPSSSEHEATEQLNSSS
As to the kind of experiment: co-IP; Chk2^Cds1.GFP precipitated with GFP-Trap-MA from cryo-ground S. pombe dma1.Δ cells in IP2 buffer (50 mM Hepes pH 7.5, 150 mM NaCl, 0.2% triton X-100); Sid4 detected by Western blot with Sid4 antibodies.

For assay [4], the target named is CK1δ^Hhp1, two-hybrid fusion (fission yeast) (UniProt P40235). The assay is described as follows: two-hybrid; Matchmaker Gold system, pGADT7 in Y187 crossed with pGBKT7 in Y2HGold; diploids plated on SD-Trp-Leu and SD-Trp-Leu-His, 30°C, 2-3 d.
In assay [5] the target is T4, CK1δ^Hhp2, two-hybrid fusion (fission yeast) (UniProt P40236).
T4 sequence: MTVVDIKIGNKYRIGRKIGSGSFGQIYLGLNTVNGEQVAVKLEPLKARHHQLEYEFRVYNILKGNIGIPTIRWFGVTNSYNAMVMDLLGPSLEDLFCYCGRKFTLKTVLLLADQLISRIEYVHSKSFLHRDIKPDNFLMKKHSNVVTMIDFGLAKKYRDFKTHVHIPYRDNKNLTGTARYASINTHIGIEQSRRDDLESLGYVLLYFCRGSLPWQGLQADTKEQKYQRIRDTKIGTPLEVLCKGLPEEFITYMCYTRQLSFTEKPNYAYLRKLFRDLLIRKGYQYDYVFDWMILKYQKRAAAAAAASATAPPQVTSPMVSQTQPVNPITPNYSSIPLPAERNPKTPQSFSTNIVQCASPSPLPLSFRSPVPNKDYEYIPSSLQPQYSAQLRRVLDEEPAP
The assay is described as above.

Assay [6] concerns the target T5, Ppc89, two-hybrid fusion (fission yeast) (UniProt Q10218).
T5 sequence: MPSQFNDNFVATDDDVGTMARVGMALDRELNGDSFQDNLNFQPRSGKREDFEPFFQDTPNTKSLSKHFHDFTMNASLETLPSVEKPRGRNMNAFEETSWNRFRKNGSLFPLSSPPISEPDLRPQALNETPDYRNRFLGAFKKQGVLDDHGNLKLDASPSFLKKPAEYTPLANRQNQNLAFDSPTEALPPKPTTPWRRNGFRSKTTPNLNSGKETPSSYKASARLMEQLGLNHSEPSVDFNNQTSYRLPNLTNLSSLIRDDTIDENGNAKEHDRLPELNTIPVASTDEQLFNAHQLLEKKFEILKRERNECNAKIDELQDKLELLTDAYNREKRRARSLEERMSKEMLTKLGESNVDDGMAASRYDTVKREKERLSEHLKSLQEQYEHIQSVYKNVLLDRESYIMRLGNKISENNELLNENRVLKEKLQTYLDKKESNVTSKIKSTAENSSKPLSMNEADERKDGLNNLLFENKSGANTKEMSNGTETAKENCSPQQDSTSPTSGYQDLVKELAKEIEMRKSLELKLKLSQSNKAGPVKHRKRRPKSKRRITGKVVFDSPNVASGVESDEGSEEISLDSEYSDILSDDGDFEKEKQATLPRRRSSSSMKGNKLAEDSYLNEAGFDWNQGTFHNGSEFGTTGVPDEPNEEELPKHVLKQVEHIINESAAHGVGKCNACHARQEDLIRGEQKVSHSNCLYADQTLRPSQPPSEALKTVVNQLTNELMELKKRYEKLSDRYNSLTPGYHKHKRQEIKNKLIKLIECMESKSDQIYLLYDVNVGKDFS
The description is as above.

Where a chain is given by its changes, count along the chain named. In names and notes the source's numbering stands. These are yes or no findings as the source states them, for the method shown. For part of these data: In cells and extracts the contact can be indirect. Some results given as binding are weak or reduced against the parent protein; the word gives no strength. Where a sequence is shown, tags or fusion partners need not be part of it.

B1: Ppc89.3Pk (protein, UniProt Q10218 1-783)
chain: T5 sequence
As to B1, the binding entry in assay [1] and in assay [2] was “binds” each time.

B2: Sid4 (protein, UniProt O60187 1-660)
chain: MDEAFGDSLSTDYRWLGHSHFDSHPSAGDSIYFDSLDEDADPSRTARIDRIAELLDGLNDEQISELVNGVNSTTIKENTKKEISNPNDSTRLPLEQIPGSNNLFLDPRHQLGDNSQNAQRHHEPSFNSEKASYTSTPYKNVAPKVIDSPSARHMHSNSPSFPPSQSHTSSYDQSPKGQLRDNISVPNQQDGLDPEVFNQQSKETKKSLQVPPSRNVPPPVTRPNQYNPEPNFSLSSGYPQQHFSQPELQNRNVHLETVPESYPVPPSGYPLTSSTCVSSISQPIQSTDCQKAQENLSNNKQMSSNDQDIDPFKQAITDLPPSFVNIVLEMNATIQSLSNQCQQRDKQIENITKQLLMNQQDYCPTTMSTTVSTPLCPPKRFPKSTKDFKEQKPDTKQVRSATISNDFNLKGNGRYNEKSQIAVPSEIRVQLSTLDAILLQFEHLRKELTQARKEIQILRHTSQNGDQESNESSKNAITTKTTDKGNNKENTMLNDGSTAPAKNDIRNVINTNNLDAKLSDESELMIEKNKSYSTPASSTIPTFHTSQPLTSLNMPDSRFNLAKEKQLYYRLGLQHIDQQCSVETANMLKTVLVQLNIPFAIFPSTIGQVRRQLQQGRRLYQWARNIHYLIYEENMRDGLVSKQCLADMLKKIRELKKRSL
On to B2, for which, in assay [3], the binding entry is reported as “binds”.

B3: Sid4.T275ES278D (protein, UniProt O60187 1-660)
chain: B2 chain with T275E, S278D
As for B3, the binding result in assay [3] is “binds”.

B4: Sid4.T275AS278A (protein, UniProt O60187 1-660)
chain: B2 chain with T275A, S278A
On to B4, for which the binding entry in assay [3] is reported as “no binding”.

B5: C-terminal fragment of Sid4 (466–660 aa) T584E, two-hybrid fusion (domain or fragment, UniProt O60187 466-660)
chain: T1 sequence with T119E
B5: the binding entry in assay [4] and in assay [5] was “binds” throughout.

B6: C-terminal fragment of Sid4 (466–660 aa) T584V, two-hybrid fusion (domain or fragment, UniProt O60187 466-660)
chain: T1 sequence with T119V
B6: the figures for the binding entry in assay [4], in assay [5] and in assay [6] were “no binding”, “no binding” and “binds”, respectively.

B7: C-terminal fragment of Sid4 (466–660 aa), two-hybrid fusion (domain or fragment, UniProt O60187 466-660)
chain: T1 sequence
Regarding B7, the binding entry is given as “no binding” in assay [4], “no binding” in assay [5] and “binds” in assay [6].

B8: C-terminal fragment of Sid4 (466–660 aa) T584D, two-hybrid fusion (domain or fragment, UniProt O60187 466-660)
chain: T1 sequence with T119D
As for B8, the binding entry in assay [4] and in assay [5] was “binds” throughout.

B9: C-terminal fragment of Sid4 (466–660 aa) T584A, two-hybrid fusion (domain or fragment, UniProt O60187 466-660)
chain: T1 sequence with T119A
For B9, the binding result in assay [4] is “binds”; in assay [5], “binds weakly”; in assay [6], “binds”.
